Data from article PMC6919601, “Identification of Plasmodium dipeptidyl aminopeptidase allosteric inhibitors by high throughput screening” (PLoS ONE, 2019).
About 230 (0.21%) of roughly 110,000 compounds showed an effect of 50% or more. The list shows a part of the results.

Molecular target: DPAP1 (Plasmodium falciparum, UniProt Q8IIJ9)
Test: primary screen, percent inhibition; read by cleavage of a fluorogenic dipeptide substrate; higher = more effect of the substance
Parameters: species or system P. falciparum D10 trophozoite lysates; single well
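Further: 30 min substrate incubation versus DMSO and 10 µM JCP410 controls.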

Sequence of DPAP1 (Q8IIJ9 whole entry, looked up): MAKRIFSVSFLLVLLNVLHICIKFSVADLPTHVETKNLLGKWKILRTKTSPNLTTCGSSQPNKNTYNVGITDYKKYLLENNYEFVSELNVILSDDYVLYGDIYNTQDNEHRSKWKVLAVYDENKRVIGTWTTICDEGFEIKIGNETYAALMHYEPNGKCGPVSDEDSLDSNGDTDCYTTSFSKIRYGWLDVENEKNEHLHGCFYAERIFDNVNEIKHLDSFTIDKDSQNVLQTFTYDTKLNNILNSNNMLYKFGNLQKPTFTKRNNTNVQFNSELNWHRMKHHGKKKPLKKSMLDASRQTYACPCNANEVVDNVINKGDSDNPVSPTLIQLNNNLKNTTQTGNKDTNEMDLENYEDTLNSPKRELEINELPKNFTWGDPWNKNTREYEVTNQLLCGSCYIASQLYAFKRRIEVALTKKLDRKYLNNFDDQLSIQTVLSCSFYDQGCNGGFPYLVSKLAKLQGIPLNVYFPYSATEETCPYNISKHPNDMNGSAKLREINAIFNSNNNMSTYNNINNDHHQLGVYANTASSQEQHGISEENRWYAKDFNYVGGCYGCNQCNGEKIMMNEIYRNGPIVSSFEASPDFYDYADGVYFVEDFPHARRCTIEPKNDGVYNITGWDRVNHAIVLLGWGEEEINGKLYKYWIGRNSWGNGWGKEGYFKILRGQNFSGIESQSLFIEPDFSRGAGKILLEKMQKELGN

SMILES	% Inhibition @ 10 uM [%]
C/C(=N\Cc1ccc(Cl)cc1)C1=C(O)c2ccccc2C1=O	-4.68
CC(C)c1ccc(S(=O)(=O)NCC(=O)O)cc1	-4.85
Cc1ccccc1CNC(=O)c1ccc(CN(c2ccccc2)S(C)(=O)=O)cc1	-3.71
O=C(CCc1nnc2n(Cc3ccc(Cl)cc3)c(=O)c3ccccc3n12)N1CCc2ccccc2C1	0.981
CC(C)c1cc(C(C)C)c(S(=O)(=O)N2CCCC2)c(C(C)C)c1	3.54
O=C(NC1(C(F)(F)F)C(=O)Nc2c1c(=O)[nH]c(=O)n2-c1ccccc1)c1ccccc1F (stereo not drawn)	3.8
CC1=C(c2ccc(C)cc2)S(=O)(=O)N=C1NCCC(C)C	3.87
O=C(Nc1ccc(S(=O)(=O)N2CCCC2)cc1)c1ccc(F)cc1	-0.173
COc1cc2nc(S)n3nc(-c4cccnc4)nc3c2cc1OC	3.61
COc1ccc(C2=N/C(=C\c3ccc4c(c3)OCO4)C(=O)O2)cc1	-2.18
COc1ccc(OC)c(CNCc2c(C(=O)O)n(C)c3cc(OC)ccc23)c1	-4.76
O=C(/C=C/c1ccccc1)Nc1cccc(Cl)c1Cl	0.317
CCCOC(=O)C1=C(C)NC(=O)NC1c1ccccc1Cl (stereo not drawn)	3.61
Cc1ccc(CNC(=O)c2cc(S(=O)(=O)N3CCCCC3)c[nH]2)cc1	2.51
COc1cc(CN2CCSCC2)cc2c1OCO2	-4.15
COCCN(Cc1ccc(C)c(Br)c1)S(=O)(=O)c1c[nH]c(C(=O)OC)c1	-7.84
CN(C=O)CP(=O)(O)CN1CCCCC1	-3.14
Cc1cccc2sc(N(CCCN(C)C)C(=O)c3ccco3)nc12	-1.6
CC(C)(Oc1ccc(Cl)cc1)C(=O)NCc1cccnc1	-15.1
O=C1CSc2ccccc2N1Cc1ccccc1	12.2
CCO/C(O)=C1\C(C)=NC2=C(C(=O)CC(C)(C)C2)C1c1ccc(OC)c(OC)c1OC (stereo not drawn)	4.1
Clc1ccc(OCCCCCCN2CCCCC2)cc1	-0.351
Cc1nc(C)c(Cc2cccc3ccccc23)c(O)n1	-0.48
COc1ccc(C2NCCc3cc(OC)c(OC)cc32)cc1 (stereo not drawn)	-1.8
O=c1/c(=C/c2cn(-c3ccccc3)nc2-c2cccs2)sc2nc(-c3ccncc3)nn12	1.52
CC(C)(C)CC(=O)NCc1nc(-c2ccccc2)no1	-4.82

SMILES	% Inhibition @ 10 uM [%]
CN(CC(=O)NCc1cccnc1)S(=O)(=O)c1cc(Br)cnc1N	-5.37
COc1ccccc1-n1c(CN2CCN(Cc3ccccc3)CC2)nc2ccccc2c1=O	0.245
COCCCNC(=O)c1c(C(=O)O)c(-c2ccccc2)n2c1-c1ccccc1C2	-2.83
O=C1c2ccccc2C(=O)N1CSc1n[nH]c(-c2ccccc2)n1	0.76
CCC(C)NC(=O)CS(=O)(=O)Cc1nc(-c2ccc(C)cc2)oc1C (stereo not drawn)	-1.89
CCOC1=NC2Nc3ccccc3N(CC)C2C1c1ccccc1 (stereo not drawn)	7.96
O=C(Nc1nc(-c2ccc(F)cc2F)cs1)c1cccc(F)c1F	1.76
O=P(O)(c1ccccc1)C1CCCCN1 (stereo not drawn)	3.83
CC(C)(C)c1ccc2oc(-c3ccc(N)cc3)nc2c1	3.9
CCc1ccc(OCC(=O)Nc2sc(C)c(C)c2C(N)=O)cc1	4.3
O=C(Nc1ncc(CN2CCOCC2)s1)C(c1ccccc1)c1ccccc1	-3.71
Cc1c(Br)c(C(=O)Nc2ccn(C34CC5CC(CC(C5)C3)C4)n2)nn1C	-6.81
Cc1[nH]c(-c2ccc(F)cc2)cc1C(=O)N1CCC(C)CC1	0.522
Cc1ccc(O)c(-c2cc(-c3ccc(Cl)cc3)[nH]n2)c1	-1.96
O=C(Cn1nc(-c2ccc(Cl)cc2)c2ccccc2c1=O)NCC1CCCO1 (stereo not drawn)	-7.8
COc1ccc(C2CC(=O)C(/C=N/CCN3CCN(C4OC(=O)c5ccccc54)CC3)=C(O)C2)cc1 (stereo not drawn)	2.24
CCN1CCN(C(=O)C2(C)CCCCC2)CC1	-1.36
CC(C)C(C(=O)O)N1Cc2ccc(C(=O)O)cc2C1=O (stereo not drawn)	2.6
COc1ccccc1NC(=O)COc1ccc(Cl)cc1	-3.69
CC(C)c1ccc(N2CCN(C(N)=O)CC2)cc1	5.08
Cc1nc2nc(NC(=O)c3cccc(Cl)c3)nn2c(O)c1C	3.66
Cc1ccc(S(=O)(=O)N2CC(C)N(S(=O)(=O)c3ccc(C)cc3C)CC2C)c(C)c1 (stereo not drawn)	2.03
O=C(NC(=O)C12CC3CC(CC(C3)C1)C2)N1CCCCC1	4.73
COc1cccc(/C=C2\SC(Nc3ccccc3)=NC2=O)c1OC(C)C	-1.22
COc1ccc(Cn2c(C(=O)O)c(CNC(C)CCc3ccccc3)c3ccc(C)cc32)cc1 (stereo not drawn)	9.65
